± gives the standard deviation of the averaged measurements. Some of the results follow.

The subject of this assay is PfAP2-I AP2 domain 3 (GST-tagged). Description: gcPBM binding intensity (ln(normalized median fluorescence intensity)); higher = stronger DNA binding. An outline of the steps: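 Probes on an Agilent 4 × 180k array were primer-extended, double-stranded and 36 bp long, taken from intergenic genomic regions, with negative controls added. GST-tagged P. falciparum DNA-binding domains from E. coli, about 25 μg on average, were applied to the array for 1 h in 1× PBS containing 1% milk, 0.2 mg/ml BSA, 0.5% salmon testes DNA and 0.03% Triton X-100. Binding intensity, obtained after Alexa488 anti-GST antibody detection and a 488 nm scan, is the highest Masliner-normalised natural-log median intensity across replicate spots of either probe orientation.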
Consider “TGATAGCTAGCTATATGTACATATATATATATATAT [XGTACX_site393]”, for which the “gcPBM binding intensity (ln)” value is 9.41 ± 0.68.

On to CTTTCGGTTGGAGAGGTGCGCTTCTCCTTTATAATA, for which the “gcPBM binding intensity (ln)” value was found to be 9.22 ± 0.27. As for “AAACATCATAAATATACACACATATATATATATATA [CACACA_site620]”, the figure is 9.45 ± 0.57; as for “TACACAAAATTTAAATGTACATTAAATATATGATGT [XGTACX_site2140]”, 7.82 ± 0.47. The result for “CGAAACCATATGTACACACACATATATAAATATGTA [CACACA_site7082]” reads 7.97 ± 0.25.

Turning to “AAAACGTATCACAAAAGTACAGATAGTTATAATATA [XGTACX_site185]”, the “gcPBM binding intensity (ln)” value amounted to 7.62 ± 0.56.

In the case of “TTTATATTTCTCTTTAGTACATATTATATTCTTTTA [XGTACX_site1618]”, the “gcPBM binding intensity (ln)” value was 7.67 ± 0.57.

Take “AATGAAAATAAATTAACACACAATTTTAATATTGTT [CACACA_site1306]”: the “gcPBM binding intensity (ln)” value was found to be 7.34 ± 0.61. As for “TCTTAAATATACAGTTGTACTAAACAAAAAAAAAAA [XGTACX_site2639]”, the figure is 8.07 ± 0.76; as for “TATAAAAAATGATAAAGTACTTTATACACACAAATA [XGTACX_site8486]”, 8.06 ± 0.46. The result for “AAAATATACACACATATGTATATAATATTATATGTA [GTGCAC_negctrl_site496]” reads 7.7 ± 0.38; that for “CTAAAACAATAAATCACACATACATAGGATAATATA [CACACA_site4247]”, 7.54 ± 0.65. The result for “ATTTATAATCTGTATAGTACACATATATACATGGTT [XGTACX_site2714]” reads 7.75 ± 0.64. Consider “TTGGCATACAGACACACACACACACGCCCACATATA [CACACA_site6425]”, for which the “gcPBM binding intensity (ln)” value was 8.04 ± 0.43. The result for “TTTTTTTTTTGTAGTTGTACGAACTAGCTATTTATG [XGTACX_site692]” reads 7.94 ± 0.31; that for “ATATATATATATATATGTACATATATATATTTTTTA [XGTACX_site5987]”, 9.43 ± 0.24. As for “CAAAAAAACAAACACACACACACACCCATATATATA [CACACA_site3653]”, the figure is 8.64 ± 0.59; as for “TTATTTTTTCAAGAATGTACTTACGAATTGTCGTAT [XGTACX_site1363]”, 7.39 ± 0.42. “ATCAATACACATATATGTACATATAATAATTATCTT [XGTACX_site662]”: the “gcPBM binding intensity (ln)” value is 8.35 ± 0.41. Regarding “TAATTACCATATGGTACACACATATATATATGTATA [CACACA_site3487]”, the “gcPBM binding intensity (ln)” value amounted to 8.01 ± 0.38.

As to “TTATATTAAACAAACACACACATATATATATATATA [CACACA_site2382]”, the “gcPBM binding intensity (ln)” value was determined as 9.48 ± 0.67.

Take “TTAACAAATGGACACACACACACACCCAAAAAAAAA [CACACA_site4443]”: the “gcPBM binding intensity (ln)” value was found to be 8.41 ± 0.2. As for “TGTTACATATTATAAATACATTAACTATTATATGTA [CACACA_negctrl_site1735]”, the figure is 7.46 ± 0.49; as for “TATATATATATATATTGTACATATTGTATATATTGT [XGTACX_site3212]”, 9.22 ± 0.42. The result for “TATATATATATTTATACACACATTAGTGTATCCATG [CACACA_site5609]” reads 9.08 ± 0.23; that for “TTTATAAAAAATTTTTTTTTTTTTTTTTAAATATAT [CACACA_negctrl_site146]”, 7.22 ± 0.41. As for “AAATATATATATATAATACACACTAAAGTAACATAA [CACACA_site2870]”, the figure is 7.83 ± 0.7; as for “TGTCGACATGTAGGTAGTACTATTAAAAATAATGAT [XGTACX_site3849]”, 7.92 ± 0.6; as for “ATAGAAGGACATATAACACACATATATTATAAGTAT [CACACA_site5461]”, 7.98 ± 0.31. As for “GGATGATTAAGGGGGACACACGTTTATATATTTATA [CACACA_site4342]”, the “gcPBM binding intensity (ln)” value was 9.05 ± 0.35. As for “TAAATATAAACACAAACACACACATATATATATATA [CACACA_site7978]”, the figure is 9.35 ± 0.23; as for “ATATATTATTATATATGTACTTATTTATAAATGATT [XGTACX_site7597]”, 7.63 ± 0.32. The result for “AAATAGGGAATTTATGCACACAGTTAAGGGGGAAAA [CACACA_site2071]” reads 9.78 ± 0.11. As for “AATAAATTAATAAGGTGTACATAAATAATTTATATA [XGTACX_site8278]”, the figure is 7.92 ± 0.26. Consider “CATACTCTACATAGATGTACTCATTTAAAAAAAAAA [XGTACX_site6945]”, for which the “gcPBM binding intensity (ln)” value was 7.83 ± 0.23. On to “ATTTTTTTTTTTTTTTTTTTTTTTTTCTCTCTCACT [CACACA_negctrl_site1046]”, for which the “gcPBM binding intensity (ln)” value is 7.64 ± 0.54. The result for “ATTCAAAAGGTTTAATGTACGTGATGTTTCACAAAT [XGTACX_site784]” reads 7.74 ± 0.5.

Turning to “TGTTATTAAAACGTGACACACAATATATATATATAT [CACACA_site3539]”, the “gcPBM binding intensity (ln)” value was 9.23 ± 0.3. The result for “TTTTTTTTTAAGCAAAGGAAATCAAAATAAAAATAT [CACACA_negctrl_site719]” reads 7.92 ± 0.56; that for “TTTTTTTTTTTTTTTTGTACACATAGTAAAAATTAA [XGTACX_site2410]”, 8.38 ± 0.82; that for “TTATAAATTATATATATGACCAATAATTGTGAGCAT [CACACA_negctrl_site725]”, 8.02 ± 0.57. The result for “TTTTTTTTTTATTCTACACACATATGTTTTTATATG [CACACA_site182]” reads 7.98 ± 0.86; that for “TATATATATATATGTTGTACTTTTAATTTAAATGTA [XGTACX_site4239]”, 9.54 ± 0.5; that for “TAAATACCTATATGGCGTACTATTATCATAGTATAT [XGTACX_site5423]”, 7.54 ± 0.56.

The values above are taken from the supplement of paper PMC11417369.
